According to PMC10668032:
The other results are listed elsewhere or left out. At the low end of the ranking the order means little.

Biological target: SIX1 homeodomain (reference allele) (UniProt Q15475)
Experiment: universal protein binding microarray
Details: Universal all-10-mer PBM (8x60K, AMADID 030236), 300 nM GST-tagged protein, Alexa Fluor 488 anti-GST; buffer, salt, pH and temperature not stated; high values mean tight binding; most listed sequences are background and not binding sites; double strand, one strand shown

Sequence | binding signal [E-score]
CTTGTTGA | -0.0132
GCACTTCA | -0.269
CATACGAC | 0.0218
AATAATGC | 0.0282
GGTTGGCA | -0.0309
AACGAACC | -0.0542
ATGATCCA | 0.391
GGAAATAA | -0.11
ACCTGAGT | -0.0865
CGCAAGCG | -0.17
GTGTTGTA | 0.00185
CCGCAGGA | -0.0257
CACACTTC | -0.0634
GGAGAACC | 0.12
GACATCAC | -0.158
AAAATTTC | -0.152
ATACAAGA | 0.239
ACGAAGCA | -0.124
CCACGGAG | -0.00554
AACTCCAA | -0.253
TATTAAGA | 0.0987
CGCAGCGC | -0.125
AAGTGTGA | -0.112
AACGGCAT | -0.0142
ACGGTACC | -0.0396

Sequence | binding signal [E-score]
CTGACGCC | -0.103
CATCGGTC | -0.0237
ACTGGACC | -0.162
CTCCTGTA | -0.102
GCCAACTA | -0.146
ACTTATTC | -0.12
ATACGCCC | 0.275
AAAATCCA | 0.00411
ATATGTAC | 0.244
CAGGTACA | -0.0285
CCGTGCGA | 0.109
CTGTTCTC | -0.184
CACTTCTA | 0.143
CGAAGGCC | -0.356
ACCCTCGA | 0.103
ATCTTAGC | 0.0959
CATTCACA | -0.271
AACTCTGA | -0.183
AGCGAATG | -0.178
CGGCGGCC | -0.131
CAGCTCTA | -0.00351
CACGCGAG | -0.122
TGGCTGAA | -0.0477
AGCTAACT | -0.128
TAAATAAA | -0.148

Sequence | binding signal [E-score]
CCTGTACG | -0.0176
ACTAACAC | -0.0253
ACAGAGCA | -0.175
ACTGGCTA | -0.182
CGCAGCCC | -0.224
CGAGTTGC | -0.225
CTGACTCC | -0.0493
ACACGTTC | -0.0979
AACCTGGG | -0.0294
GTATTCGA | 0.141
AACCCGTG | -0.0305
TCATGTCA | -0.0575
AATGTCGC | -0.0445
GCACACCC | 0.144
ATCATGCG | 0.24
GCTTTTAA | -0.281
GACAGGAA | -0.197
CAGGACAC | 0.187
AAGTAACA | -0.148
GAGTTTTA | -0.121
CCTGCCTA | 0.0626
CGACTGGC | -0.242
CACGCGCG | -0.146
AATGTAAA | -0.0866
CAGCTTAA | -0.157

Sequence | binding signal [E-score]
ACAGCTGG | -0.274
GGATTGGA | 0.171
TAACTAGA | 0.0558
AAACCTAA | -0.109
CCCGGAGC | -0.109
CATTTCGG | -0.137
GCTCGCCC | -0.0344
AGCCCTTG | -0.0416
AACATCGC | -0.164
CAGATTGG | 0.0663
AGTCCCGG | -0.293
CGGCGACG | -0.13
CACCGGGG | 0.0349
CTATTATA | 0.132
ACGGGTCG | -0.0259
CACTAGTG | 0.138
ACAGGGCT | -0.194
CCCGCGCC | 0.0972
GGGGCGGA | 0.159
CATGTCAC | -0.146
CGGTCCGA | 0.0143
AACTATGC | -0.183
CGTCCATA | -0.0698
CTCCAGGC | -0.221
CAGCGGCA | -0.274

Sequence | binding signal [E-score]
AGTCTGCA | -0.273
GTCTTATA | 0.145
GGCATACA | 0.0145
ACTTCGCT | -0.0769
AGAAGAAC | -0.0578
AGTCGCAT | -0.0501
GCCCCGTA | 0.048
CCCCTATA | 0.198
CACCAAGG | 0.0261
CCACCTAA | -0.0563
TCTTTTCA | -0.176
TATCTAGA | 0.189
AACCTAAA | -0.193
ATTCTTAA | -0.0969
GCCAGAAC | -0.0551
CGAAGTAA | -0.0763
GATTCTAA | -0.0872
CAGCTGTC | -0.254
GACCGCGC | -0.205
AGGTGTAA | 0.165
AGTAGTCG | -0.094
AATCGACA | -0.0126
CCCAGGGC | -0.163
ACCTGAAT | 0.0191
TGTCACAA | 0.0301

Sequence | binding signal [E-score]
CACGGGTC | -0.0655
CTCATGCA | 0.0525
CCGACGCA | -0.195
GCCGTACA | -0.00255
AAGCTGAC | -0.269
CGTCCCCA | -0.134
CCTAATCA | 2.5e-05
AAACGTTA | -0.171
CCATCACA | 0.0973
GACAGCCC | -0.171
AAGGTCTA | -0.00129
ATACATGG | 0.31
GTGCGCAA | -0.185
GCAGGTAA | -0.14
AATCTTGT | 0.0243
CCAACCTA | -0.157
GGTTTAAC | -0.0475
CAGGGACG | -0.222
GCTCTAGA | -0.0141
CAACATCA | -0.15
AAGAGGAT | 0.212
AACCGCCG | -0.0966
CGCAGGGA | -0.0669
ATGGCTTC | -0.17
AAGAACTA | -0.08

Sequence | binding signal [E-score]
ATTTAATG | -0.0619
AATTCGGC | -0.178
CAGAGACA | -0.134
AAACAACT | -0.0722
AAAACATC | -0.342
TCAGAGCA | -0.0441
GATCCTGA | 0.301
GATCTAGA | 0.252
GCCCTCAA | -0.141
ATCTTCAT | 0.161
CCTTATGA | 0.0701
TGCCGACA | -0.0342
CAGGATAG | 0.315
ATGTACCG | -0.112
CATGTTTA | -0.114
AGACGATA | 0.363
CTACTCAA | 0.0391
GCCTTTGA | -0.0737
CCGTATGC | 0.0205
GAGGCCTC | -0.131
AGTCAAAG | -0.14
CCGGAGGA | 0.121
ACCCTCCG | 0.13
CAGTGGCA | -0.146
TCTTTAAA | -0.117

Sequence | binding signal [E-score]
AATGGTCG | -0.209
TCACTCAA | -0.0284
AGAGGGAC | -0.0489
CAGACGTC | -0.118
CCTGCATA | -0.0304
ATACAACG | 0.152
CAACGTAG | -0.161
ACGGCGAA | 0.00632
AGAAATCA | -0.264
ACGTACCA | -0.0673
ATGTCAAC | -0.182
ATATCTTG | 0.271
GTCTTCAA | -0.303
AGCTACCA | -0.181
GGATCACC | 0.438
CCTTGTGA | 0.164
CTAAACCA | -0.0463
CTAACAAG | -0.294
TCCATCGA | 0.117
CAATCAAC | -0.241
GACTTCAA | -0.119
AGCCCTAG | -0.193
AGATGACT | 0.0481
CACGGAAC | -0.0143
ATTGTGTA | 0.112

Sequence | binding signal [E-score]
ATAGCTAA | -0.00798
GAAGTTCA | -0.293
GACTCGAC | -0.269
GGCTCACA | 0.0409
CGCTTACA | -0.104
ATGTAATA | 0.208
GCCATCAC | -0.273
AGCGTAAT | -0.0605
ACGAGCGT | -0.0496
CGTTCGTC | -0.0314
ACGTGTGG | -0.212
CCCGGTAG | 0.0265
CACTTCCA | -0.0275
CGCCCCCC | -0.175
TCCAGACA | -0.0599
GTCGGCTA | -0.0191
GGCGCCCA | -0.282
AGGAGGTG | 0.0382
AGTACCAA | -0.128
AGAGCACA | -0.141
GAAATATA | 0.131
CCGAGCAG | -0.14
GTGATCAA | 0.236
GAAGACCA | -0.172
CGCTGAGC | -0.11

Sequence | binding signal [E-score]
ACACTGAC | 0.055
AGTCTCCA | -0.0883
TAACCCAA | -0.0424
AGTGCTTC | -0.344
GACCAACA | -0.136
AGCAGAGG | -0.0574
TCCACCGA | -0.119
ACAGATGT | -0.103
TACGAGGA | 0.0147
AAACGACA | 0.104
AGCACGCA | -0.267
ACTACGAC | -0.0908
ATCAGGTC | 0.0874
GGCGGCAA | -0.106
ATCGTGAC | 0.0541
AACTTTAC | -0.137
CTGTGCTA | -0.0255
CGATAGCC | 0.287
CCGACTGA | -0.0493
ATCCGACC | 0.337
CAGTTCTA | 0.0456
CTTAACCA | -0.147
GCGTGATA | 0.437
ATCCAAAT | 0.141
AATTTCCG | -0.225

Sequence | binding signal [E-score]
AAATAGGT | -0.0424
GCGCCTTA | -0.217
ATACATCG | 0.238
AGCCCGGG | -0.0909
AGGCCCTA | -0.255
ATGGATTG | 0.182
ACGGACTG | -0.242
TGCGTTAA | -0.074
ATCGGTGG | 0.189
TGAAGCCA | -0.235
CAAAATAA | -0.0862
ATACAGAA | 0.223
ATTAACAC | 0.258
AGGGGTTA | 0.136
AAGGGCAC | -0.0535
AAAGGAGC | -0.2
AGAGACGC | -0.0376
CTCTGAGA | 0.0369
CTAAGTGA | 0.133
GGGGTACC | 0.145
CGCAGTTC | -0.176
AACCGTTA | -0.199
ATGACTAG | -0.231
GTGTTTTA | -0.162
GGCGGCCA | -0.162

Sequence | binding signal [E-score]
CGGCGCAA | -0.114
CACTAAGG | -0.0594
ACGACGAT | 0.113
ACACAAAG | -0.0461
TTTAAAAA | -0.0428
ACGTTTCT | -0.302
AAGCTACC | -0.0689
CTCGGCAG | 0.0723
CATATCTA | 0.322
GCTCGGCA | -0.00583
ACCTGCTA | 0.228
CCTGAGCA | -0.00048
AGAGACTC | -0.153
ATTTGCAC | -0.209
AAGAGTTC | -0.0987
CCCTATGC | -0.165
AAATGGAT | 0.167
AGCAGGGC | -0.0389
ACTGGGGA | 0.0274
CATCGCAA | -0.123
CCCAAGGC | -0.131
CAGTGGGC | 0.0211
ACAGACCA | -0.147
AGTTAAAA | -0.275
CCAACGCA | -0.0621

Sequence | binding signal [E-score]
CGGAGTGA | -0.0521
GAAGTGGC | -0.197
ACTACCGG | -0.145
GTTTCAAA | -0.0624
ATCGCTTC | 0.226
AAATAGCA | 0.0357
ACGACTAG | -0.0585
CCGCAAAA | -0.115
CTCGGAAA | -0.201
AGGTCCCC | -0.428
AACACCTA | 0.126
AGATGAGA | 0.224
TCTTACAA | -0.0476
ATGTACGG | -0.0489
ATCCGCAT | 0.37
ATCAAAAC | 0.126
TGACACAA | 0.0628
AATTACAA | -0.297
GTACACAA | -0.0464
AGAGTGAG | 0.172
ACAGGAAG | -0.073
CCCTGTGA | 0.0226
GTTCCTTA | -0.0541
GCCATCAA | -0.318
TGATTGCA | -0.101

Sequence | binding signal [E-score]
ATTACCAG | -0.0925
CATAGCCG | 0.0103
CTCTGCGA | -0.148
GGCAGAGA | -0.138
AGGATTCG | 0.0478
CGCGAATC | -0.0537
GTAGGAAA | -0.178
CCAGGTCC | -0.124
CAAGGTCA | 0.0153
AGCCGCTA | 0.00298
GATTAATC | 0.236
GTGTTTAA | -0.111
AGGTTGAC | -0.1
CGGTGAGA | 0.253
GACTTCCA | -0.307
CGTATTAG | 0.174
CATGTACA | -0.217
CGAGAAGA | -0.0698
GATCTTTA | 0.164
